# Assay results taken from the supplement of paper PMC7826260.
# This is one part of the list. The data describe in vitro nicking of single-stranded DNA by Rep domains at 3 µM enzyme and 37 °C for 1 h; the strands have 90 letters, of which the middle is given. Numbers give uncut DNA relative to the enzyme-free pool, as log2; uncut sequences lie near 0, cut ones below; no hit call is given. Shares of all reads are compared; values above 0 arise when much of the pool is cut.
# System: T1, Rep nickase domain of tomato golden mosaic virus
# T1 sequence (protein, residues 1-124, tag omitted): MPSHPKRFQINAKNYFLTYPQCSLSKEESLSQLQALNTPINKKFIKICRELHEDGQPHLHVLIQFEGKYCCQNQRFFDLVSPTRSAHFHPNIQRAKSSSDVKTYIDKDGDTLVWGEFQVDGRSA
# Assay: uncleaved DNA left, log2 of reads against the no-enzyme library (log2 ratio); higher = less cleavage (more negative = more Rep cleavage of the k-mer); sequences stand for … in CTCGTCCG…ACCGGAGA
# Protocol: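 A pool of 90-nt single-stranded DNAs with seven random bases just before the constant AC of the nick site (name = the seven bases) was cut by 3 µM recombinant His6-SUMO-tagged Rep nickase domain (300 nM DNA, 50 mM HEPES pH 8.0, 50 mM NaCl, 1 mM MnCl2, 1 h, 37 °C, three replicates). Uncut DNA was amplified and sequenced.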
row,Sequence,uncleaved DNA left (log2)
1,GCCAAGT,0.123
2,GGAGAGA,0.174
3,TTACTCC,-0.0939
4,ACTTCGC,-0.0598
5,TTGTTCT,-0.14
6,GGCTATG,-0.0221
7,TATCTAT,0.0341
8,AGACCCG,0.0662
9,TAGATAA,0.0743
10,CAACGCA,-0.0549
11,GCTAGGA,0.0194
12,CACACCA,-0.2
13,GCGCGAA,-0.0971
14,ACCTGGC,0.0191
15,GACTCTC,-0.074
16,GTCCACA,0.0494
17,TCCTGAC,-0.0683
18,GATGTAC,-0.047
19,GCACAAC,-0.0205
20,ACTATGG,-0.107

row,Sequence,uncleaved DNA left (log2)
1,TGTCTAC,0.148
2,ATAGCAT,0.059
3,CAACGAG,0.0353
4,TAAGAAC,0.146
5,TCGCCAA,-0.0133
6,CTCTGCG,0.0271
7,ATGACAT,0.0624
8,CCGGGCT,0.015
9,CGTAGGG,-0.0989
10,AGATCCG,0.0121
11,GCTGAAC,0.131
12,ACGCCAT,-0.018
13,AGCCAGT,-0.0367
14,GCCCGGT,-0.178
15,TGCACAG,0.0625
16,TGCTCGC,0.165
17,ACCAGGA,0.0753
18,AAGTTTA,-0.0028
19,CGGGCAT,-0.0741
20,AATTGAC,-0.0453
